Read counts are not given, so values of variants with three or more changes are uncertain.
B1: CPEB3 Ribozyme (parent)
chain: UAACAGGGGGCCACAGCAGAAGCGUUCACGUCGCAGCCCCUGUCAGAUUCUGGUGAAUCUGCGAAUUCUGCUGUAUAUCUC

Variants of: B1
Experiment: self-cleavage, relative activity (ratio to wild type); higher = more cleavage; in vitro, sequencing
How it was run: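 Relative activity was defined as the cleaved/total read fraction for a variant divided by the same fraction for the unmutated ribozyme. CPEB3 self-cleaving ribozyme libraries were made by rounds of error-prone PCR, barcoded, and transcribed in vitro with T7 RNA polymerase for 5 hours at 37°C, and cleavage ran through transcription plus a 15 min DNase I step before EDTA. Illumina sequencing of template-switched reverse transcripts gave the reads, and DNA sequencing mapped the barcodes. Averages come from three batches, using variants with at least 5 reads.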

Variant | self-cleavage
A15G A45U U49G U58A | 0.08
A15G A45U U67A | 0.18
A15G A45U U80C | 0.54
A15G A47G A56U C59U U80G | 0.2
A15G A47G A64G | 0.49
A15G A47G U54C | 0.84
A15G A56U C59U | 0.11
A15G A56U U69A | 0.19
A15G A57G U58C U67C | 0.09
A15G A64G C71A | 0.15
A15G A64U U78C | 0.29
A15G A65G U69C | 0.27
A15G A75U U80C | 1.01
A15G C17A U41C G63C C79A | 0.38
A15G C17G A20G A56U U78C | 0.08
A15G C17U A28G A45G | 0.37
A15G C23A U25A C44U | 0.19
A15G C23G U31A | 0.07
A15G C23U A28U U41G A45G | 0.08
A15G C23U U60C U67A | 0.09
A15G C27U U60A | 0.24

Variant | self-cleavage
A15G C29A U41A U48C | 0.31
A15G C29A U41C U74C A77U | 0.55
A15G C29U A45U A64G | 0.09
A15G C29U U31C U60C U67C U69A | 0.06
A15G C29U U43A U54C U80C | 0.25
A15G C32U U51G A56G | 0.34
A15G C34A U69C A77U | 0.13
A15G C34U U51A U74A | 0.22
A15G C38G U43A | 0.19
A15G C38G U72C | 0.39
A15G C38U A57U U69C | 0.08
A15G C38U A65G U69C | 0.19
A15G C38U U69A | 0.55
A15G C39U A47G U58C | 0.92
A15G C40U U58C A65G U67C | 0.06
A15G C50U A64U | 0.25
A15G C59U U69C | 0.19
A15G G16C A35U U43C U67A U69C | 0.41
A15G G16C G52C | 0.14
A15G G16C U25A U31C | 0.06
A15G G16U A18G U72C | 0.4

Variant | self-cleavage
A15G G19A G55U A56G U80C | 0.23
A15G G19A U31C U58C G73A | 0.06
A15G G19A U60A U78C | 0.3
A15G G19C A21G A57G | 0.18
A15G G19U A28U U31A A57U U58C U67A | 0.07
A15G G19U G63A A64U U66C | 0.13
A15G G19U U31A U58C U67A U78C | 0.11
A15G G22C U51G | 0.28
A15G G24A A35U C44U G52A U69C U72A | 0.05
A15G G24A A45G U74C | 0.13
A15G G24A C38A U43C A56G A65G | 0.19
A15G G24C A28G A45G U49C | 0.35
A15G G24C A45G | 0.27
A15G G24C U31A U51C | 0.06
A15G G30A U48C A64G U69A | 0.06
A15G G30C C59U U80C | 0.1
A15G G33A G55A C68A | 0.08
A15G G33A U66C | 0.74
A15G G33U A35U A65G U78A | 0.08
A15G G36A A65G | 0.13
A15G G36C U67C | 0.16

Variant | self-cleavage
A15G G36U C44U U72A U74C | 0.06
A15G G36U U41A U49A U67G U72A | 0.07
A15G G42A U43C U69C | 0.17
A15G G42C A64G | 0.31
A15G G52C U60C | 0.32
A15G G52U U58G A75U U78C | 0.31
A15G G73A U80C | 1.23
A15G U25A A45U U66C U72C | 0.16
A15G U25C A28U | 0.15
A15G U25C A35U C39A | 0.2
A15G U25C A45G | 0.43
A15G U25C A45G A47G | 0
A15G U25C A45G A64G A75G | 0.2
A15G U25C A47G A56G C62U | 0.2
A15G U25C A47G U78A | 0.07
A15G U25C C27A A75U | 0.34
A15G U25C C29U | 0.16
A15G U25C C37U A77U | 0.51
A15G U25C U26A | 0.31
A15G U25C U26A A64G U78C C81G | 0.22
